From the supplement of paper PMC3334620
In all, about 33,000 sequences were measured (“E-score (-0.5 to 0.5)”: median about -0.053, highest 2% from about 0.37 on). Some of the results follow.

Biological target: Hap1 (UniProt P0CE41)
Experiment: PBM E-score (8-mer binding enrichment) (E-score (-0.5 to 0.5)); higher = stronger / more preferred TF binding; most listed sequences are background and not binding sites
Details: protein concentration: 200 nM; construct: GST-DNA-binding domain
Method in brief: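 GST-tagged yeast TFs (full-length or DNA-binding domain) were made by PURExpress in vitro transcription/translation and applied at about 100-200 nM to universal all-10-mer Agilent arrays. The arrays were made double-stranded by primer extension, on fresh or once-stripped slides. Bound protein was detected with fluorescent anti-GST, and scans were normalised with masliner. Each ungapped eight-base word, pooled with its reverse complement, received an E-score (modified Wilcoxon-Mann-Whitney statistic) from the Universal PBM Analysis Suite.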

Chain of UniProt P0CE41 (P0CE41 whole entry): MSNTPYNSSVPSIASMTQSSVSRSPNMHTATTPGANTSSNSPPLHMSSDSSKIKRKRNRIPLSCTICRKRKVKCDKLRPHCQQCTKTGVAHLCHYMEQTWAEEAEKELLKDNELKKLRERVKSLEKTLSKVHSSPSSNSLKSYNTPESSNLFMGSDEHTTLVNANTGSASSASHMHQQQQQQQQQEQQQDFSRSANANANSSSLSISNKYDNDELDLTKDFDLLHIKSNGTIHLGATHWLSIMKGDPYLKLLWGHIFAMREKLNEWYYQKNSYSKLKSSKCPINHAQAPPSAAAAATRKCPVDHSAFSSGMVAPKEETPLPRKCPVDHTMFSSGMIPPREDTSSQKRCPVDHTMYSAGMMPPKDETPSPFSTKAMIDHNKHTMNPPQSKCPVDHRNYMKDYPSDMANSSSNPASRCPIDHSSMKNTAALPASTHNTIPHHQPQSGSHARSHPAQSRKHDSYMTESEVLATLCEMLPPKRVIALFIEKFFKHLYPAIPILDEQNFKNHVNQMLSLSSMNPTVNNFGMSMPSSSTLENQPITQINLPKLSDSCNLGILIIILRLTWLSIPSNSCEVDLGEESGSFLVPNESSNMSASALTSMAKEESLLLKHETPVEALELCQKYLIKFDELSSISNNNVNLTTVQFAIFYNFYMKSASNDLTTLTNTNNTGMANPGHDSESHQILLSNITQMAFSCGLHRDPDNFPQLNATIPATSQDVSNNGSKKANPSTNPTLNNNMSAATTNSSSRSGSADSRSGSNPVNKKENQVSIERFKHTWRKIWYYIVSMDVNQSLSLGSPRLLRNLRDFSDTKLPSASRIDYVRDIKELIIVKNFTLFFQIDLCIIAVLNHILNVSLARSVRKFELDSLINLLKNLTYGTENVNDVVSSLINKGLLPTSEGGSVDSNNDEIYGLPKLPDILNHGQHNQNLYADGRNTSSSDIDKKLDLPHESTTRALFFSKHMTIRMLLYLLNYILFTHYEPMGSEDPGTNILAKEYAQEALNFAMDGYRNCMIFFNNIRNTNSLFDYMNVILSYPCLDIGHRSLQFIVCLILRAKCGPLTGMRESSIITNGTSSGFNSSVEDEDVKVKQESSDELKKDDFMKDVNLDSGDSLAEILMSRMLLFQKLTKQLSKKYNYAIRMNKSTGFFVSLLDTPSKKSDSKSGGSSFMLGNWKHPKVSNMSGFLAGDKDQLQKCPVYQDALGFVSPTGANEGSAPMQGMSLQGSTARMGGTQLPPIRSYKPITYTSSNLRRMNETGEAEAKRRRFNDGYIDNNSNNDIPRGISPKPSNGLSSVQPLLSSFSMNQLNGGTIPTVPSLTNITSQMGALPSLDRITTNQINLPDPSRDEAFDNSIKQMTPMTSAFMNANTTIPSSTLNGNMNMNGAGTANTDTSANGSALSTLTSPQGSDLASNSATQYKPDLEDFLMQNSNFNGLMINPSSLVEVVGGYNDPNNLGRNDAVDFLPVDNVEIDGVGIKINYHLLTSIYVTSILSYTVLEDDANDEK

Sequence | PBM E-score
CACATTTA | -0.286
CAGAAAGA | -0.208
TGAAATCA | 0.0166
ACCGTTAA | 0.287
GAGTTTGA | -0.00172
ACGGAAAC | 0.287
ACCTGGCC | 0.0949
CATATACG | -0.0979
ATTTATCG | 0.281
CGAGTGCC | 0.00199
AACAAGGA | -0.0118
GGAGCTCC | 0.233
CCTGGGCG | -0.102
GGTCGGCA | 0.209
AAGAGGCT | -0.249
ACATCTTC | 0.0163
GATCGCGC | 0.043
TCCCTAGA | -0.182
CAACCTGA | -0.389
CGTTCATA | -0.17
CACGATAA | 0.087
CATGCCGC | 0.177

Sequence | PBM E-score
ATCATCGA | -0.0995
TACGCAAA | -0.32
ATAGAACG | 0.0373
AGTCGAGA | -0.0928
AAAGGCAG | -0.113
TAGTGGCA | -0.154
CAACGATC | -0.0496
TCAACGGA | 0.254
CGACGGGA | 0.189
AGTAGTAA | -0.182
AGATATCG | 0.315
AGGGACCG | 0.0343
CACTGTGA | -0.239
CTCTTGAA | -0.265
AATTAGAC | -0.199
ATGACTAG | -0.21
AGGAGCGA | -0.0207
ATTGGTCA | -0.0998
ATCCGGCA | 0.329
AGCATAAT | 0.0753
GCCCTCTA | -0.18
AAAACATG | -0.101

Sequence | PBM E-score
CAGTTACA | -0.0624
GCAGGGCA | -0.116
ACGCTCAG | -0.265
CTCTCGAC | -0.242
GCGATTCA | -0.0223
AGCTGATC | 0.0339
CCGATCTC | 0.278
CGGTACAG | 0.157
AAGGACCT | -0.123
CGGTTAAG | 0.146
AGTGAATC | -0.0162
GCAAGAGC | -0.151
GAATCCCC | 0.109
CACATCCG | 0.278
ACTCAGTC | -0.249
GCCAGTCA | -0.163
CGATGACG | 0.202
ATTTGGTC | 0.141
ACATAACC | 0.0716
ACGCATCC | -0.0512
CCTTTTGA | -0.0628
CAGCGTGG | -0.191

Sequence | PBM E-score
CACTACCA | -0.0953
AAGTGTGC | -0.132
GCTGTTAC | -0.067
AACCAACT | -0.06
GTAGAGAC | -0.193
ACCACACG | -0.344
GCCTGGTA | -0.224
CATGGAGG | -0.321
CTAGCGCC | 0.0602
GGTCTAAC | 0.102
GCCGAGAA | 0.362
AGTTTCTA | -0.167
CTTTCAGC | 0.0716
TCGATTAA | -0.157
AGTGCGCC | 0.0517
CGGCTATA | 0.383
AACCCCTT | -0.0725
CTCCAAAA | -0.172
CAAGCACC | -0.077
GACTCGAC | -0.137
CTTACCTA | -0.171
GAGTAGGA | -0.0973

Sequence | PBM E-score
AAGATATC | 0.0169
CAACTAGA | -0.116
CTATTTGC | 0.0173
CCTCGTTA | -0.198
GCGGCTTA | 0.131
GTCAAATA | -0.156
CTTATATA | -0.0566
AAATTACA | 0.0171
CGCACTTC | 0.0529
AGGGGAAA | -0.129
AACTGCGC | -0.0367
CCGTGACG | 0.16
AATTGGCG | -0.104
GTAGCCAC | -0.194
GATGATGA | 0.00542
AAGATTTG | -0.12
CAACGTCC | 0.117
AAGATTGT | -0.132
ATTACTCC | 0.174
GATTAGAA | 0.0297
CTTCAGAC | -0.277
CTATGTTA | 0.0956
